Data: the RNAGym collection of RNA variant scans (doi:10.7554/elife.90254)
The source gives no read counts; variants with many changes may rest on few reads.

B1: LINE1-mini (parent)
chain: GGCAGAGCUCAACACAGCGUGGCAAAGUGGCUGUGGCUAGACUGCC

Variants of: B1
Assay: self-cleavage, relative activity (ratio to wild type); higher = more cleavage; in vitro, sequencing; the parent is a self-cleaving ribozyme

Row | Variant | self-cleavage
1 | GGCAUAGCUCGACACAACGUGGCAACGUGGCUGUGGGUAGACUGCC | 0.01
2 | GGCAUAGCUCACCACAGCGUGGCAAAGUGGCUGUGGCCAGACAGCC | 0.02
3 | GGCACAGCUCAACACAGCGUGGCAAAGUGGCUGCGGAUAGACUGCC | 0.03
4 | GGCAUAGCUCAACCCAGCGAGGCUAAGUGGCUGUGGCUAGACUGCC | 0.01
5 | GGCAUAGCUCAGCACUGCGAGGCAAAGUGGUUUUGGCUAGACUGCC | 0.02
6 | GGCAUAGCUCAACUCAGCGUGGCUAAGUGGCUGUGGCUAGGCUGCC | 0.04
7 | GGCAUAGCUCAACACUGCGUGGCAAGGUGGCUGUGGCUAGACUGCC | 0.01
8 | GGCAUAGCUCUACACAGCGUUGCAAAGUGGCUGUUGCUAGACUGCC | 0.02
9 | GGCAUAGCUCACCGCAGCGUGGCAAAGUGGGUGUGGCUAGACUGCC | 0.03
10 | GGCAUAGCUCAACGCAGCGUGGCAAAGUGGCUGUGGUUAGACUGUC | 0.03
11 | GGCAUAGCUCCACACAGCGUGGCAAAGUGGAUGUCGCUUGACUGCC | 0
12 | GGCAUAGCUCUAUACAGCGUGGCAAAGUGGCUGUGACUAGACAGCA | 0.02
13 | GGCAUAGCUCAACGCAGCGUGGCAAAGUGGCGGUGGCUUGACUGCC | 0.02
14 | GGCACAGCUCAACACAGCGUGGCAAAGUGGCUGUGGCAAUACUGCC | 0.01
15 | GGCAUAGCUCAACCCAGCGUACCAAAGUAGCUGUGGCUAGACUGCC | 0.02
16 | GGCAUAGCUCAACGCAGCAUGGCAAAGUGGCUGUGGCUAGACUGCC | 0.06
17 | GGCAUAGCUCAACGCAGCGUGGCAAAUUGGCUGUGGCUAGACUGCA | 0.05
18 | GGCAUAGCUCUACACAGCGUGACACAGUGGCUGUGGCUAGACUGCC | 0.03
19 | GGCAUUGCUCAACACAGCGUGGCAAAGUGGCCGUGGCUAGACUGCC | 0.11

Row | Variant | self-cleavage
20 | GGCAUAGCUCGACACAGCGUGGUAAAGUGGCUGUGGCUAGACUGCC | 0
21 | GGCAUUGCUCAACAAAGCGUGGCAAAGUGGCUGUCGCUAGACUGCC | 0.02
22 | GGCAUAGCUCAACUCAGCGUGACAAAGUGGCUGUGGCUAGCUUGCC | 0.02
23 | GGCAUAGCUCAACGCAGCGUGGCAAAGUGGCUGUGGCUAGAAUGCC | 0.04
24 | GGCAUAGCUCAACCCAGCGUGGCAAAGUGGCUGUGGCUACACUCCC | 0.02
25 | GGCAUAGCUCAGCACAGCGUGGCAAAGUGGCUGGGGCUAGACUGCC | 0.05
26 | GGCAUAGCUCAACACAGCGUGGCGAAGUGGCUGUGGCUAGAUUGCA | 0.03
27 | GGCAUAGCUCCACACAGCGUGGCAAAGUGGCUGUGGCUAGACUUCC | 0.03
28 | GGCAUAGCUCAACGAAGCGUGGCAAAGUGGCUGUGGCUAGACUGAC | 0
29 | GGCAUCGCUCCAUACAGGGUGGCAAAGUGGCUGUGGCUAGUCUUCC | 0
30 | GGCAUGGCUCAACACAGGGUGGCAAAGGGGCUGUGGCUGGACUGAC | 0.02
31 | GGCAUAGCUCAACACCGCGUGGCAAAGUGGCUGGGGCUAGACUGCC | 0.01
32 | GGCAUAGCUCAGCACAGCGUGGCAAAGUGGCUGUAGCUAGACUGCC | 0.04
33 | GGCAUAGCUCAACACUGCGUGGUAAAGUGGCUGUAGGUAGACUGCC | 0.04
34 | GGCAUAGCUCAGCACAGCGAGGCAAAGUGGCUGUGGCUAGACUGCG | 0.08
35 | GGCAUGGCUCAACUCAGCGUGGCAAUGUGGCUGUGGCUAGACUGCC | 0.03
36 | GGCAUGGCUCAACACAGCGUGGCAAAGUGGCUGUGGCUAGAGUGCC | 0.13
37 | GGCAUGGCUCAACACAGCGUGGCAAAGUGGCUGUGGCUAGAAUGCC | 0.08
38 | GGCAUUGCUCAACCCAGCGUGGCAAAGUGGCUGUGGUUAGACUCCC | 0.08

Row | Variant | self-cleavage
39 | GGCAUAGCUCAUCACAGGGUGGCAAAGUGGCUGUGGCUGGACUGCC | 0.03
40 | GGCAUAGCUCAACACCGCGUGGCGGAGAGGCUAUGGGUAGACCGCC | 0
41 | GGCAUCGCUCCACACAGCGUGGCAAAGUGGCUGUGGCUAGACUGCC | 0.01
42 | GGCAUAGCUCAACACGGCGCGGAAAAGUGGCUGUGGCUAGAGUGCU | 0.02
43 | GGCAUAGCUCAACACUGCGUGUCAAAGUGGCUGUGGCUAGACUGCC | 0.05
44 | GGCAUAGCUCAUCACAGCGUGACAAAGUGGCUGUGGCUAGACUGCC | 0.03
45 | GGCACAGCUCAACACAGCGUGGCAAAGAGGCUGUGUCUAGACUGCC | 0.04
46 | GGCAUGGCUCAACACAGCGUGGCAAAGUGGCCGUGGCUAGACUGCC | 0.07
47 | GGCACAGCUCAACACAGCGUGGCAAAGUGGCGGACGCUAGACUGCC | 0.04
48 | GGCAUUGCUCAACACUGCGUGGCAAAGUGGCUGCGGCUAGACUGCC | 0.08
49 | GGCAUGGCUCAACACUGGGUGGCAAAGUGGCUGUGGCUAGACUGCC | 0.03
50 | GGCACAGCUCAACACAGCGUGGCAAAGUGGCUGUGGCGUGACUGCC | 0.05
51 | GGCAUAGCUCAACUAAUCGUGGCAAAGUGGCUGUGGCUAGACUGCC | 0
52 | GGCAUCGCUCAACACAGCGUGACAAAGUGGCUGUGGCUGGACUGCC | 0.05
53 | GGCAUAGCUCAACACCGCGUGGCAAAGUGGCUGUGACUAGAAUGCC | 0.02
54 | GGCAUUGCUCAAUACAGCGUUGCAAAGUGGCUGUGGCUAGACUGCC | 0.14
55 | GGCAUAGCUCAACUCAGCGUGGUAAAGUGGCUGUGGCUAGACUGCC | 0.03
56 | GGCAUAGCUCAACACGGCGUGGCAAAUUGGCUGGGGCUAGACUGCC | 0.01
